# Paper PMC12136788
# The list shows a part of the results.
# T1: UNK ZnF1-6 (called full-length) (human, UniProt Q9C0B0 30-357)
# T1 sequence: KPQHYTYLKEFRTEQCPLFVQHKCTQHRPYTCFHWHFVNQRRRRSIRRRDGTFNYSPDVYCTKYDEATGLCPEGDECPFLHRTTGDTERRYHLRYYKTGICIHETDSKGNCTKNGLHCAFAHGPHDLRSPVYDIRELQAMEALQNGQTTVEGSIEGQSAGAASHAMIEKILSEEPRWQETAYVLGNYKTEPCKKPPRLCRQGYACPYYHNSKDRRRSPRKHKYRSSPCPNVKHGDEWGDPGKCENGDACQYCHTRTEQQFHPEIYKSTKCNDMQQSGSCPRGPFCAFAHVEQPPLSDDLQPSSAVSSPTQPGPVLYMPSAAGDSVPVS
# B1: ENSG00000013293:stop:overlap|stop_codon|ENSG00000013293|stop_codon|NA|stop_codon (ssRNA)
# RNA: GGGAGUUCUACAGUCCGACGAUCAACACAAACAGAACUCAGAGGCCCUGAUUGCAAAUGAUGAGUUAGAUUACUCUCCAGAGUAGGAGAAACACACAAGUGGGUAGAAAUGGUGAUGACUGAUUUUCAGUAACUUAACCUGUGCAACAGAGGAUUGAGCAUCA
# B2: chr6:110609977:110614534:-|three_prime_utr|ENSG00000155111|control|control|control (ssRNA)
# RNA: GGGAGUUCUACAGUCCGACGAUCAUUUAAAACUCAUACACAUGGGAGGAAAACCUUAUAUACUGAGCAUUGUGCAGGACUGAUAGCUCUUCUUUAUUGACUUAAAGAAGAUUCUUGUGAAGUUUCCCCAGCACCCCUUCCCUGCAACAGAGGAUUGAGCAUCA
# B3: chr15:65454262:65454415:-|CDS|ENSG00000074603|control|control|control (ssRNA)
# RNA: GGGAGUUCUACAGUCCGACGAUCAAUUGACGAUCAGGUGGAAGGACUCCAAUAUCUAGCUUCUCGAUAUGAUUUCAUUGACUUAGAUCGUGUGGGCAUCCACGGCUGGUCCUAUGGAGGAUACCUCUCCCUGAUGGCAUUAAUCAACAGAGGAUUGAGCAUCA
# B4: ENSG00000198589:be:win_2501|CDS|ENSG00000198589|bound_else_gene|NA|bound_elsewhere_windowed (ssRNA)
# RNA: GGGAGUUCUACAGUCCGACGAUCAGAGCAUGGAGGUUCGCAGAGCCUUUCUUUCUGACAUGAUUAAACUUUUUAAUAACAGUAGAGAAAACAGGAGGAGCUUGCUACAAUGCUCUGUGUGGCAAGAAUGGAUGCUUUCUCUCUCAACAGAGGAUUGAGCAUCA
# B5: chr2:182778012:182778113:+|3pUTR|ENSG00000077232|msi1|FALSE|unique (ssRNA)
# RNA: GGGAGUUCUACAGUCCGACGAUCUAAAGAUAUAUGUGUUCAUGUAUUUUCUGAAAUUGCUUUCAUAGAAAUUUUCCCACUGAUAGUUGAUUUUUGAGGCAUCUAAUAUUUACAUAUUUGCCUUCUGAACUUUGUUUUGACCUGCAACAGAGGAUUGAGCAUCA
# B6: ENSG00000124766:be:win_3101|3pUTR|ENSG00000124766|bound_else_gene|NA|bound_elsewhere_windowed (ssRNA)
# RNA: GGGAGUUCUACAGUCCGACGAUCACACUUUUAAAAAACAAAAAAAGACAAGAGAGAUGAAAACGUUUGAUUAUUUUCUCAGUGUAUUUUUGUAAAAAAUAUAUAAAGGGGGUGUUAAUCGGUGUAAAUCGCUGUUUGGAUUUCCAACAGAGGAUUGAGCAUCA
# B7: chr11:11963431:11963477:-|3pUTR|ENSG00000050165|msi1_unk|total|mutant (ssRNA)
# RNA: GGGAGUUCUACAGUCCGACGAUCUUGACACUGUCCCUCUUUGGCAGUUGCAUCCGUAACUUUGAAAGGUAUAUGACUGAGCGCCGCAUACAGGUUAACCUGCAGAAACAGUACUCCGGUAAUUGCCGGGCGAGGAUUAUAAAUCAACAGAGGAUUGAGCAUCA
# B8: chr19:6729913:6730384:-|three_prime_utr|ENSG00000125734|control|control|control (ssRNA)
# RNA: GGGAGUUCUACAGUCCGACGAUCUACGCCGUUGUCUUGCCUUUUUGGGGGUUGGGGUCUACACGGAGGUUGUGUUUACAAUGUAGAAACCUGUUUUCGCUGUGUGUGGCGGGGGCGCGGGCACAGGGUCCGUGUCUUUGUAUACAACAGAGGAUUGAGCAUCA
# B9: chrX:135759845:135760351:-|three_prime_utr|ENSG00000269096|control|control|control (ssRNA)
# RNA: GGGAGUUCUACAGUCCGACGAUCGUUUUCUACAAUGGAGCAGGAUAUUGCUGAAGUCUCCUGGCAUAUGUUACCGAAUCAAAUAGCCUUCCAGAGGCUAAGAAAUUUCUGUUAGUAAAAGAUGUUCUUUUUCCCAAAGCAUUUCAACAGAGGAUUGAGCAUCA
# B10: chr7:16784014:16784129:+|3pUTR|ENSG00000106537|msi1_unk|total|mutant (ssRNA)
# RNA: GGGAGUUCUACAGUCCGACGAUCGAUAAUUUACUUGCCGUCUUUUAUGAUUACACCAAUGUAUUCCCGAAACCGUUAUGUCUCCGGAAAUUGUGGUUUAAUUUUUGACUUUUACAGGUAAGUGCAAAGGAGAAGUGGUUUCAUCAACAGAGGAUUGAGCAUCA
# B11: chr8:6757792:6757893:+|3pUTR|ENSG00000155189|msi1|total|mutant (ssRNA)
# RNA: GGGAGUUCUACAGUCCGACGAUCAUUUAUUACAACUUGACAGCUCCAAGCUCUUAUUACUAAAGUAUUCCGUAUCUUGCAGCCCGUUAAUAUUUCAUCUUUUGCUUAUUUCUACAAGUCAGUGAAAUAAAUUGUAUUCCGGAACAACAGAGGAUUGAGCAUCA
# B12: chr19:12699869:12699961:-|3pUTR|ENSG00000105576|msi1_unk|total|mutant (ssRNA)
# RNA: GGGAGUUCUACAGUCCGACGAUCGAGGGUGGGGGUGCCGUUACUUCCCAGUUGGCCAGAAAACUGGGCCUUGCAGACCCCCUCCGCAUUUUUUCCCUUUUUUUCCUUCCCUGCUUUCUACUUCUUUGGGGAGCCCCUUGUGUUCAACAGAGGAUUGAGCAUCA
# B13: chr3:14145182:14145283:-|3pUTR|ENSG00000154767|unk|total|mutant (ssRNA)
# RNA: GGGAGUUCUACAGUCCGACGAUCUGAAAAUUAAGGAAAUGUCCGUAAAACCGAUGAGUGUUAAACCCGAUUGUAUUCAUUACCCGAUAAAAUGUAUAAAGCUCUCUGUACUAAGGAGAAAUGACUUUUAUAACAUUUUGAGAACAACAGAGGAUUGAGCAUCA
# B14: chr6:36925625:36925726:+|3pUTR|ENSG00000198663|msi1|FALSE|unique (ssRNA)
# RNA: GGGAGUUCUACAGUCCGACGAUCACUUCUCAAGUUAAUUUUGAUAAGCAGAAUCUACUACUGGCCAGAGCGACAGGAGUGGCUAGGGGUUGCCAGCCAGUCCCUUUCUGAUGAUCAAGGCCCUGCACAGCAGGAUGCCACAGGCAACAGAGGAUUGAGCAUCA
# B15: chr1:246907611:246907713:-|CDS|ENSG00000153207|unk|total|mutant (ssRNA)
# RNA: GGGAGUUCUACAGUCCGACGAUCUGAAGUACCACACAUCCGAGAAAGUGUAAUGAGACAAGGGCGCCAUCUGUGUUUCCAGUCCGUAAGUCCAACAGGAACAGCUGUUUCAACUCUCCGUUACAUAAGCAGGACAAAUCAGCUCAACAGAGGAUUGAGCAUCA
# B16: ENSG00000119689:stop:overlap|stop_codon|ENSG00000119689|stop_codon|NA|stop_codon (ssRNA)
# RNA: GGGAGUUCUACAGUCCGACGAUCCUUUCCUCCGCAAAAUCAAGGCAGCGGUAGAGGAUCCCAGAGUCCUCCUCCUGGAUCUUUAGGAGGAACCCACACACCCUACAAGUUGAUCAUGCAGGAACUGAAAACCAGUCUUCUCCCCAACAGAGGAUUGAGCAUCA
# B17: chr12:64128047:64128160:+|CDS|ENSG00000196935|unk|FALSE|unique (ssRNA)
# RNA: GGGAGUUCUACAGUCCGACGAUCGGCAGCCUGACCAACAUCAGCCGGCACGACUCCCUCAAGAAGAUCGACAGCCCUCCCAUUAGAAGGUCCACGUCAUCAGGGCAAUACACGGGCUUCAAUGACCACAAGCCACUGGACCCACAACAGAGGAUUGAGCAUCA
# B18: chr9:101390727:101390839:-|CDS|ENSG00000136897|unk|FALSE|unique (ssRNA)
# RNA: GGGAGUUCUACAGUCCGACGAUCCAGAAAAGAGAAAGAGCCAGUGGUUGUUGAGACAGUAGAAGAGAAAAAGGAACCUAUCCUAGUGUGUCCACCUUUACGAAGCCGAGCAUACACACCACCUGAAGAUCUCCAGAGUCGUUUCAACAGAGGAUUGAGCAUCA
# B19: chr3:30797676:30800881:-|three_prime_utr|ENSG00000144644|control|control|control (ssRNA)
# RNA: GGGAGUUCUACAGUCCGACGAUCUGUGUGUGUGUGUGUGUGUGUGUGUGUGUGUGUGUGUGUGUGUCUAUCUGUGUCUGUAAUAGGAAGACCUAAGGAAAGUAAUACUUGAAAUGUGUUGCAAGUACAUGUUUUCAUUUGUGCCAACAGAGGAUUGAGCAUCA
# B20: ENSG00000107863:be:win_751|CDS|ENSG00000107863|bound_else_gene|NA|bound_elsewhere_windowed (ssRNA)
# RNA: GGGAGUUCUACAGUCCGACGAUCCCUCCAUCACCAACAGAUGUUGCAAAAUCAAACACAGCAGUGUGUGUUUGCAAUGAAAGUGUAAGGACUGUCAUUGUGCCUUCUGAGAAGGUUGUAGAUUUGUUAUCCAAUAGAAACAACCAACAGAGGAUUGAGCAUCA
# B21: ENSG00000070961:be:win_4001|3pUTR|ENSG00000070961|bound_else_gene|NA|bound_elsewhere_windowed (ssRNA)
# RNA: GGGAGUUCUACAGUCCGACGAUCAGUAAAACUGGGCAAGACAAAGAGCCCUGGAUCGUUGAAUUGAUAGUUUAAUUUCUGCUGUUGGCUGUUAAUAAUUUGGAUUAUUUAUGUUUAUAAAUGAUACAGAUCUGUUUACAAGGUCAACAGAGGAUUGAGCAUCA
# B22: chr5:82277714:82277885:-|CDS|ENSG00000186468|unk|FALSE|unique (ssRNA)
# RNA: GGGAGUUCUACAGUCCGACGAUCAACUAAAAUAUUUAAUUUUUAGGCAAGUGUCGUGGACUUCGUACUGCUAGGAAGCUCCGUAGUCACCGACGAGACCAGAAGUGGCAUGAUAAACAGUAUAAGAAAGCUCAUUUGGGCACACAACAGAGGAUUGAGCAUCA
# Target: T1, UNK ZnF1-6 (called full-length)
# Test: nsRBNS (natural sequence RNA bind-n-seq); RBNS binding buffer (assumed for nsRBNS): 25 mM Tris pH 7.5, 150 mM KCl, 3 mM MgCl2, 0.01% Triton X-100, 500 ug/ml BSA, 20 U/ml SUPERase-In, 4 C; UNK is unkempt and MSI1 is Musashi-1; names of the RNAs are library labels; protein concentration not given here; high values mean tight binding
row,Binder,binding signal
1,B1,0.921 enrichment R
2,B2,0.328 enrichment R
3,B3,1.03 enrichment R
4,B4,0.506 enrichment R
5,B5,1.31 enrichment R
6,B6,0.526 enrichment R
7,B7,0.534 enrichment R
8,B8,0.957 enrichment R
9,B9,0.596 enrichment R
10,B10,0.435 enrichment R
11,B11,0.493 enrichment R
12,B12,0.932 enrichment R
13,B13,0.315 enrichment R
14,B14,0.709 enrichment R
15,B15,0.565 enrichment R
16,B16,0.648 enrichment R
17,B17,1.28 enrichment R
18,B18,0.633 enrichment R
19,B19,0.605 enrichment R
20,B20,0.398 enrichment R
21,B21,0.527 enrichment R
22,B22,0.669 enrichment R
